This is one part of the list. The list includes weakly bound sequences.

For this assay, the target named is MaxL homodimer (UniProt P61244). The assay is described as follows: universal protein-binding microarray (PBM). As to conditions: PBS-based mixture, 10 nM His-tagged protein dimer, 2% milk, 200 ng/uL BSA, 50 ng/uL salmon testes DNA, 0.02% TX-100; detection with Alexa 488 anti-His …; high values mean tight binding; most listed sequences are background and not binding sites; double strand, one strand shown.
UniProt P61244, sequence (P61244 whole entry): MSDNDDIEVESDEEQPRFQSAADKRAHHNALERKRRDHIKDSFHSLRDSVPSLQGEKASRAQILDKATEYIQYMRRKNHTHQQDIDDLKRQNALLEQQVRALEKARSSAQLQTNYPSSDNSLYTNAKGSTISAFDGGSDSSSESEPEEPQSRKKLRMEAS
In the case of GAGGTGCC, the binding signal (normalized occupancy) came to 0.0723.

GACTACCC: the binding signal (normalized occupancy) worked out at 0.0744.

As to CATGCATG, the binding signal (normalized occupancy) stood at 0.121.

Consider CTTCAAGA, for which the binding signal (normalized occupancy) is 0.0727.

For CGGGGGGC, the binding signal (normalized occupancy) was 0.0758.

On to ATCACCAT, for which the binding signal (normalized occupancy) was 0.0846.

Turning to AATTGTCG, the binding signal (normalized occupancy) turned out to be 0.0715.

For the sequence AGCCTCCA, the binding signal (normalized occupancy) was found to be 0.0726.

For the sequence CCAAAGAG, the binding signal (normalized occupancy) was found to be 0.0706.

Consider GGTCACAA, for which the binding signal (normalized occupancy) was determined as 0.073.

Take AATACCCT: the binding signal (normalized occupancy) amounted to 0.0801.

On to CGTTGTCA, for which the binding signal (normalized occupancy) came out at 0.0754.

In the case of ACCATGAC, the binding signal (normalized occupancy) came to 0.0839.

Take AACTGTGC: the binding signal (normalized occupancy) came out at 0.0718.

As for CTCGTAAA, the binding signal (normalized occupancy) stood at 0.0717.

For the sequence CTTATTCA, the binding signal (normalized occupancy) is 0.0766.

Consider CACAGACC, for which the binding signal (normalized occupancy) was determined as 0.0734.

For CAGCCCGG, the binding signal (normalized occupancy) came out at 0.066.

Consider CTTGGGGA, for which the binding signal (normalized occupancy) was 0.0767.

Turning to CGATATTA, the binding signal (normalized occupancy) came out at 0.0788.

GTTGACAA: the binding signal (normalized occupancy) came to 0.0751.

For the sequence CCCCGTCA, the binding signal (normalized occupancy) came out at 0.0738.

In the case of CAGAGCAA, the binding signal (normalized occupancy) amounted to 0.0701.

As to ATGAGCGC, the binding signal (normalized occupancy) was 0.0764.

In the case of GCACGTGA, the binding signal (normalized occupancy) amounted to 0.36.

With CTGATAAG, the binding signal (normalized occupancy) is 0.0754.

As to CCTGGGGC, the binding signal (normalized occupancy) turned out to be 0.0692.

Consider ACATGGTC, for which the binding signal (normalized occupancy) worked out at 0.104.

As for TCGGGAGA, the binding signal (normalized occupancy) was 0.0718.

Regarding TAGAATAA, the binding signal (normalized occupancy) came out at 0.0809.

On to CCCAGAAC, for which the binding signal (normalized occupancy) came to 0.0683.

As to AGCCATAG, the binding signal (normalized occupancy) turned out to be 0.0728.

For the sequence GAGGCCGC, the binding signal (normalized occupancy) is 0.0749.

With AATTGTTG, the binding signal (normalized occupancy) worked out at 0.076.

Turning to CCCCCCTC, the binding signal (normalized occupancy) amounted to 0.0827.

In the case of ACATAGGC, the binding signal (normalized occupancy) was 0.0791.

For the sequence CCATAGGA, the binding signal (normalized occupancy) was 0.0736.

Turning to GGGAGCAC, the binding signal (normalized occupancy) was 0.0755.

Take ATTTCGGC: the binding signal (normalized occupancy) stood at 0.0731.

Turning to GCAGCCGA, the binding signal (normalized occupancy) was 0.0707.

For GTACTCGA, the binding signal (normalized occupancy) was determined as 0.0799.

For AGCCTGTG, the binding signal (normalized occupancy) is 0.0727.

For the sequence GTGTTCCA, the binding signal (normalized occupancy) turned out to be 0.0781.

Consider AGTCGGGC, for which the binding signal (normalized occupancy) amounted to 0.0682.

On to CTACGCAC, for which the binding signal (normalized occupancy) worked out at 0.0773.

Regarding ACTCCGAT, the binding signal (normalized occupancy) amounted to 0.0792.

As for ACGTCAAT, the binding signal (normalized occupancy) was found to be 0.0802.

AAGCCACT: the binding signal (normalized occupancy) was found to be 0.0744.

Turning to AAAATGGT, the binding signal (normalized occupancy) was 0.078.

Take CAAGAGAA: the binding signal (normalized occupancy) amounted to 0.074.

Consider ATGTCGCA, for which the binding signal (normalized occupancy) was 0.0861.

On to CGATCGAG, for which the binding signal (normalized occupancy) was determined as 0.0669.

Consider GCCACAGC, for which the binding signal (normalized occupancy) amounted to 0.0723.

For the sequence AATTGGGG, the binding signal (normalized occupancy) is 0.0815.

Regarding CAGCGATC, the binding signal (normalized occupancy) turned out to be 0.0736.

ATACCTTG: the binding signal (normalized occupancy) is 0.0801.

Regarding ACCTCGAC, the binding signal (normalized occupancy) stood at 0.0703.

In the case of CCTTCAAA, the binding signal (normalized occupancy) was 0.0731.

CAAACGTG: the binding signal (normalized occupancy) was 0.103.

Take CGCACAAA: the binding signal (normalized occupancy) was found to be 0.0718.

In the case of CTGCCTAA, the binding signal (normalized occupancy) worked out at 0.075.

Take CCTTTTTA: the binding signal (normalized occupancy) came to 0.0709.

For ACCAGACC, the binding signal (normalized occupancy) was found to be 0.0739.

As to ACGTTACC, the binding signal (normalized occupancy) turned out to be 0.0793.

On to CTGTACGC, for which the binding signal (normalized occupancy) is 0.071.

CTTTATAC: the binding signal (normalized occupancy) was 0.082.

In the case of ATGCTCTG, the binding signal (normalized occupancy) was 0.0732.

Consider ACGAGGTA, for which the binding signal (normalized occupancy) turned out to be 0.0848.

On to GATATATC, for which the binding signal (normalized occupancy) was 0.0839.

GTTTGTAA: the binding signal (normalized occupancy) came out at 0.0738.

For AACCGCCT, the binding signal (normalized occupancy) came out at 0.069.

TCCACCCA: the binding signal (normalized occupancy) is 0.0839.

In the case of CCTTTTTC, the binding signal (normalized occupancy) was 0.0709.

As to CAGTCGAA, the binding signal (normalized occupancy) was found to be 0.0675.

In the case of ATCGGGTC, the binding signal (normalized occupancy) was determined as 0.0688.

AGGAGATG: the binding signal (normalized occupancy) amounted to 0.0762.

In the case of CCTTGGGA, the binding signal (normalized occupancy) is 0.0682.

With ATATGACA, the binding signal (normalized occupancy) was 0.083.

On to AAGGCGTA, for which the binding signal (normalized occupancy) worked out at 0.0716.

Take GACCTCCA: the binding signal (normalized occupancy) worked out at 0.0723.

Turning to ACTTCATC, the binding signal (normalized occupancy) turned out to be 0.0786.

On to TGACTGAA, for which the binding signal (normalized occupancy) amounted to 0.0747.

For the sequence GGCCCGAA, the binding signal (normalized occupancy) was 0.0683.

Take GTACGTAC: the binding signal (normalized occupancy) is 0.0795.

As for CAAACCTA, the binding signal (normalized occupancy) stood at 0.0722.

Consider CCCACGGA, for which the binding signal (normalized occupancy) was determined as 0.0758.

Consider GGTTACTA, for which the binding signal (normalized occupancy) worked out at 0.0725.

Consider ATATCTCA, for which the binding signal (normalized occupancy) amounted to 0.081.

For AAGTAAGG, the binding signal (normalized occupancy) was determined as 0.0781.

For GAACCAGA, the binding signal (normalized occupancy) was determined as 0.0689.

In the case of GGACGCTA, the binding signal (normalized occupancy) is 0.073.

In the case of CCTATAAG, the binding signal (normalized occupancy) amounted to 0.0806.

Regarding GGTTACCA, the binding signal (normalized occupancy) came to 0.0757.

Regarding GAATGCCA, the binding signal (normalized occupancy) came out at 0.0708.

GTGCAGAA: the binding signal (normalized occupancy) stood at 0.0873.

Turning to ATACTGAA, the binding signal (normalized occupancy) turned out to be 0.0782.

As to CGCTCGCA, the binding signal (normalized occupancy) came out at 0.0724.

For GACACAAA, the binding signal (normalized occupancy) was 0.0763.

CTCGTCCA: the binding signal (normalized occupancy) came out at 0.0692.

Take ACTCGAAA: the binding signal (normalized occupancy) came out at 0.0716.

With GATGAATA, the binding signal (normalized occupancy) was found to be 0.0846.

Take AATGGGCC: the binding signal (normalized occupancy) was determined as 0.0731.

Turning to CCGTCCGA, the binding signal (normalized occupancy) amounted to 0.065.

Regarding CACAATGG, the binding signal (normalized occupancy) is 0.0783.

With CGCTAGCG, the binding signal (normalized occupancy) came to 0.0644.

For ATCATCTG, the binding signal (normalized occupancy) was 0.0826.

Regarding ATATGCTA, the binding signal (normalized occupancy) came to 0.0871.

Regarding CCAAAATC, the binding signal (normalized occupancy) turned out to be 0.0749.

On to GACGCGTA, for which the binding signal (normalized occupancy) was 0.0737.

As for ATTTATCG, the binding signal (normalized occupancy) was 0.0754.

As for AATCTCAA, the binding signal (normalized occupancy) came out at 0.0737.

Take ACGGGCCA: the binding signal (normalized occupancy) amounted to 0.0729.

As to CAGGAGTC, the binding signal (normalized occupancy) was 0.0756.

Consider AAGCACCT, for which the binding signal (normalized occupancy) amounted to 0.0743.

Regarding AAATATGA, the binding signal (normalized occupancy) stood at 0.081.

For CCCACATC, the binding signal (normalized occupancy) was 0.0807.

As to AGCGAGCA, the binding signal (normalized occupancy) was 0.0742.

Regarding CTAGTAAA, the binding signal (normalized occupancy) was determined as 0.0729.

Regarding AACCTTCT, the binding signal (normalized occupancy) is 0.068.

CCCTTTGA: the binding signal (normalized occupancy) turned out to be 0.0746.

Consider CACGAAAG, for which the binding signal (normalized occupancy) was determined as 0.0757.

For GGGACAGA, the binding signal (normalized occupancy) amounted to 0.0775.

As for GCGTGCTA, the binding signal (normalized occupancy) turned out to be 0.117.

As to CGTACGCA, the binding signal (normalized occupancy) turned out to be 0.0775.

With CCTTTCTC, the binding signal (normalized occupancy) came to 0.0748.

Turning to GAAAGGGA, the binding signal (normalized occupancy) came out at 0.0738.

For the sequence GATTACAA, the binding signal (normalized occupancy) was 0.0738.

As to CTGGGGTA, the binding signal (normalized occupancy) was 0.0774.

Take AGAGCCCT: the binding signal (normalized occupancy) came out at 0.07.

Turning to CACGGTCG, the binding signal (normalized occupancy) came to 0.0692.

With ATGTAGCG, the binding signal (normalized occupancy) turned out to be 0.0794.

Take CACGAGTC: the binding signal (normalized occupancy) is 0.0906.

For CTGTCTAC, the binding signal (normalized occupancy) came out at 0.0705.

For the sequence TAGTTTAA, the binding signal (normalized occupancy) amounted to 0.0713.

Turning to ACTGCCCC, the binding signal (normalized occupancy) worked out at 0.0751.

On to CATTCTGC, for which the binding signal (normalized occupancy) turned out to be 0.0713.

For the sequence CTTGCTCC, the binding signal (normalized occupancy) stood at 0.0703.

As to AGTGATGA, the binding signal (normalized occupancy) was determined as 0.0766.

Turning to AAGGGATT, the binding signal (normalized occupancy) is 0.0727.

For the sequence ATTTCCCC, the binding signal (normalized occupancy) came out at 0.0768.

Regarding ATGAAATC, the binding signal (normalized occupancy) turned out to be 0.0738.

As for ATCTCAAT, the binding signal (normalized occupancy) came to 0.0775.

On to CCCGTGGC, for which the binding signal (normalized occupancy) turned out to be 0.0811.

Regarding CCTACCCG, the binding signal (normalized occupancy) stood at 0.0752.

Regarding TACCCTCA, the binding signal (normalized occupancy) was 0.076.

In the case of CTAATATC, the binding signal (normalized occupancy) came to 0.0788.

In the case of CGCACCTC, the binding signal (normalized occupancy) is 0.0755.

As to CGGCCTCC, the binding signal (normalized occupancy) came to 0.0696.

In the case of CTGTCAAC, the binding signal (normalized occupancy) stood at 0.0747.

Take ATCGCAAG: the binding signal (normalized occupancy) worked out at 0.0733.

Consider ACAAGGCC, for which the binding signal (normalized occupancy) came to 0.0794.

Turning to TATGGGAA, the binding signal (normalized occupancy) came to 0.0791.

Take CAGGGGTC: the binding signal (normalized occupancy) turned out to be 0.0733.

On to GGTTTACA, for which the binding signal (normalized occupancy) amounted to 0.0767.

Turning to ACCACATA, the binding signal (normalized occupancy) amounted to 0.0854.

For the sequence AATTTGGT, the binding signal (normalized occupancy) was found to be 0.0725.

On to CGATATTC, for which the binding signal (normalized occupancy) worked out at 0.0696.

Take CGATTCGA: the binding signal (normalized occupancy) stood at 0.0744.

Regarding ACAATTAC, the binding signal (normalized occupancy) is 0.0798.

Consider ATCTAGAA, for which the binding signal (normalized occupancy) was found to be 0.0751.

Consider TATTGAAA, for which the binding signal (normalized occupancy) is 0.0766.

For the sequence AGAACTGC, the binding signal (normalized occupancy) worked out at 0.0718.

Turning to CCAGGCCC, the binding signal (normalized occupancy) was 0.0736.

Turning to CCAACATC, the binding signal (normalized occupancy) is 0.0806.

As to GATAGACC, the binding signal (normalized occupancy) was found to be 0.0792.

For the sequence ACTGTTGC, the binding signal (normalized occupancy) stood at 0.0719.

Regarding AGTGCGGA, the binding signal (normalized occupancy) was found to be 0.0714.

As to AGAGGGAT, the binding signal (normalized occupancy) was determined as 0.0764.

On to AGAAGTGA, for which the binding signal (normalized occupancy) worked out at 0.0777.

Take CGCTACCG: the binding signal (normalized occupancy) worked out at 0.0768.

Consider AAGAGCCT, for which the binding signal (normalized occupancy) was 0.0711.

For the sequence GCCTAAAC, the binding signal (normalized occupancy) turned out to be 0.0686.

(Values after paper PMC4242493.)
